Among all 310,000 compounds or so, about 2,200 (0.71%) showed an effect of 50% or more. The effect is printed as a negative number. The list shows a part of the results.
Target: human ether-à-go-go-related gene (hERG) potassium channel (human, UniProt Q12809)
Test: primary screen, population patch clamp on CHO cells stably expressing hERG

Sequence of human ether-à-go-go-related gene (hERG) potassium channel (Q12809 whole entry, looked up): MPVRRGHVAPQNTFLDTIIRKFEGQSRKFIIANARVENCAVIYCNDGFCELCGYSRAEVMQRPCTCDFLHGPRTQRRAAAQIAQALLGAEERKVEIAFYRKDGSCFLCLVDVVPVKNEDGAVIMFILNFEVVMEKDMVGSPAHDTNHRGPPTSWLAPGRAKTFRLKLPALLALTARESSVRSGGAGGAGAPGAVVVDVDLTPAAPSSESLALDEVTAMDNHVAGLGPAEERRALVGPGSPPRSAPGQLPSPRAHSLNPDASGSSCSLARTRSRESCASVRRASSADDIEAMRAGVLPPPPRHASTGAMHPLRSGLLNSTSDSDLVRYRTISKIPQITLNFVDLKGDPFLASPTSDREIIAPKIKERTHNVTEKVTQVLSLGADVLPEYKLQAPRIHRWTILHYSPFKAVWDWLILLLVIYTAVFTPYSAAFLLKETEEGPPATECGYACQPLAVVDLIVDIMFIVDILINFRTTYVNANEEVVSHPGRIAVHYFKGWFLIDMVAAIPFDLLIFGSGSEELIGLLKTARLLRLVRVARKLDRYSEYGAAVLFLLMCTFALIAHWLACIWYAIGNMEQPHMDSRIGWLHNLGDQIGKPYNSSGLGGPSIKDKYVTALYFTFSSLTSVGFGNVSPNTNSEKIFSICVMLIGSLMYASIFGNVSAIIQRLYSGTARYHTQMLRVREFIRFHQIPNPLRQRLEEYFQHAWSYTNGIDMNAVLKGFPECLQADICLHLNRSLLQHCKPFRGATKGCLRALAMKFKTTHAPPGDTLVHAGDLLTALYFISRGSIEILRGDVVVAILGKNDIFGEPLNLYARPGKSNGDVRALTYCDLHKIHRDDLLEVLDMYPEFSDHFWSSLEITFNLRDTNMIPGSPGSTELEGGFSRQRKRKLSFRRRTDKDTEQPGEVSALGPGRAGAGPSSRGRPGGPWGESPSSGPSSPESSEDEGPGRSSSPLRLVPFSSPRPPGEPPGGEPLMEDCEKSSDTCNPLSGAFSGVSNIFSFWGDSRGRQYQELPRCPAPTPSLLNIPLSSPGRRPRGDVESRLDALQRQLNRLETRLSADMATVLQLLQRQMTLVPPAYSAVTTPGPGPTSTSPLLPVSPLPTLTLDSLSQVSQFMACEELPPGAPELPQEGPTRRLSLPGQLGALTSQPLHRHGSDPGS

| SMILES | hERG current change (%, negative = inhibition) at 1uM |
| --- | --- |
| Cc1ccc(SC(C)C(=O)NCc2ccc(F)cc2)cc1 (stereo not drawn) | 4.04% |
| CCCCCCNS(=O)(=O)c1ccc(Cl)s1 | -3.54% |
| O=c1c2ccccc2[nH]c(=S)n1CCN1CCc2ccccc2C1 | 1.82% |
| COc1ccc(-c2cc(C)no2)cc1S(=O)(=O)NCc1ccc(OC(C)C)cc1 | 10.6% |
| CCCC(=O)C1=C(N2CCCCC2)CC(C)(C)C(C(=O)OC)C1=O (stereo not drawn) | 16.3% |
| COc1ccccc1-c1csc2ncnc(Sc3nnnn3C)c12 | 14.3% |
| CCOc1ccc(C(=O)N2CCc3cc(OC)c(OC)cc3C2)cc1OCC | 11.2% |
| COc1ccccc1N(C)S(=O)(=O)c1ccc(C(=O)NC2CCCCCC2)cc1 | 8.37% |
| CCSc1nnc(NC(=O)CSc2nncc(=O)n2N)s1 | 15.1% |
| O=C(Nc1ccc(Br)cc1)c1ccc(F)c(S(=O)(=O)N2CCN(c3ccccn3)CC2)c1 | 10.3% |
| Cc1cc(C)cc(NC(=O)Cn2nnc(C(=O)NCc3cccs3)c2N)c1 | 3.25% |
| CCCCCCCC[n+]1cccc(C(=O)N(CC)CC)c1.[Br-] | 12.6% |
| O=C1NC(=O)N(Cc2ccccc2Cl)C(=O)/C1=C/N1CCOCC1 | 2.97% |
| CCCCOC(=O)C1=C(N)OC2=C(C(=O)CCC2)[C@]12C(=O)N(C)c1ccccc12 | 3.97% |
| Cc1c(C)c2ccc(OCC(=O)N(C)C)c(C)c2oc1=O | -3.22% |
| CN1CCN(S(=O)(=O)c2cccc(C(=O)Nc3sc4c(c3C(N)=O)CCCC4)c2)CC1 | -4.51% |
| CCCCn1c(N)c(N(CCC(C)C)C(=O)CC2OC(=O)c3ccccc32)c(=O)[nH]c1=O (stereo not drawn) | 6.12% |
| CC(NC(=O)C(C)N1C(=O)C2C3CC(C(Br)C3Br)C2C1=O)c1ccccc1 (stereo not drawn) | 6.04% |
| N#Cc1ccccc1NC(=O)C1CC(=O)N(c2ccc3c4c(cccc24)CC3)C1 (stereo not drawn) | 8.51% |

| SMILES | hERG current change (%, negative = inhibition) at 1uM |
| --- | --- |
| O=C(COc1ccc(S(=O)(=O)NCc2ccccc2)cc1)NCC1CCCO1 (stereo not drawn) | 9.55% |
| C=CCSc1nnc(NC(=O)c2cn(CC)c3nc(C)ccc3c2=O)s1 | 2.48% |
| CC1CCCC(C)N1C(=O)CSc1nnc(-c2ccco2)n1C (stereo not drawn) | 15.3% |
| COc1ccccc1CNC(=O)c1cc(-c2ccncc2)nc2c(Cl)cccc12 | 9.2% |
| COc1cc2c(cc1OC)C(c1cccc([N+](=O)[O-])c1)N(C(=O)c1ccccc1C(=O)O)CC2 (stereo not drawn) | 15.6% |
| Cn1c(CCN2CCOCC2)nc2cc(NS(=O)(=O)c3ccccc3)ccc21 | 6.09% |
| O=C(COc1cc2oc(=O)cc(-c3ccccc3)c2cc1Cl)NCCN1CCOCC1 | 9.31% |
| CCC(C)(C)C1CCC2(CC1)NC(=O)N(CC(=O)Nc1cc(C(F)(F)F)ccc1N1CCOCC1)C2=O (stereo not drawn) | 9.39% |
| Cc1cc2cc(OCc3ccccc3)ccc2n1C | 22.8% |
| NNC(=O)c1sc(-c2ccc(Cl)cc2)cc1N | 6.92% |
| CCOC(=O)C1CCCN(C(=O)CSc2nccn2C)C1 (stereo not drawn) | 5.4% |
| Cc1cc(Cl)ccc1N(CC(=O)N=Nc1c(O)[nH]c2ccccc12)S(C)(=O)=O | -0.158% |
| COc1ccc(OC)c(-n2cnc3cc(C(=O)O)ccc32)c1 | 7.48% |
| CC(C)(C)NC(=S)NC1CC1 | 12.9% |
| CC(=O)c1cccc(NC(=O)C2CCCN2S(=O)(=O)c2cccc3cccnc23)c1 (stereo not drawn) | 5.45% |
| Cc1sc2c(c1C)C(=O)NC(c1cccc(O)c1)N2 (stereo not drawn) | 13.4% |
| CCOCCn1c(=NC(=O)c2cc(Cl)sc2Cl)sc2cc(S(N)(=O)=O)ccc21 | 14.6% |
| CCc1ccc(Oc2nnnn2-c2ccc(C(N)=O)cc2)cc1 | 13.7% |
| O=C(O)c1ccccc1NCc1ccco1 | 14.1% |

| SMILES | hERG current change (%, negative = inhibition) at 1uM |
| --- | --- |
| O=C(Cc1ccc(Cl)cc1)NC(=S)Nc1ccccc1N1CCOCC1 | -4.31% |
| CCOc1ccc(S(=O)(=O)N2CCN(c3ccccc3OC)CC2)c2cccnc12 | 3.71% |
| Cc1cccc(C)c1N1CCN(S(=O)(=O)c2ccccc2)CC1 | 8.64% |
| Cn1c(=O)c2c(nc(NCC3CCCO3)n2Cc2cccc(Br)c2)n(C)c1=O (stereo not drawn) | 13.4% |
| Cc1ccc(NC(=O)COC(=O)CCc2c[nH]c(=O)[nH]2)cc1 | 7.58% |
| CCOC(=O)C1CCCN(S(=O)(=O)CCNC(=O)c2ccc(F)cc2)C1 (stereo not drawn) | 4.49% |
| O=C(N/N=C/c1cccnc1)C(O)c1ccccc1 (stereo not drawn) | 4.16% |
| Cc1ccc(C)c(NC(=O)CN(C)C(=O)Cc2ccccc2)c1 | 2.74% |
| O=C(COc1ccc(S(=O)(=O)N2CCCCC2)cc1)Nc1ccccc1F | 15.9% |
| Cn1c(=O)c2c(nc(SCCN3CCCCC3)n2C)n(C)c1=O | 9.53% |
| O=C(O)COc1ccc(/C=N/NC(=O)/C(=C/C=C/c2ccccc2)NC(=O)c2ccccc2)cc1 | 15% |
| CCSc1nnc(NC(=O)NCC(F)(F)F)s1 | 1.94% |
| Cc1cc(C(=O)CSc2ccc(Cl)cc2)cc(C)c1OC(=S)N(C)C | 11.9% |
| Cc1ccnc(NS(=O)(=O)c2ccc(NC(=O)c3oc4ccc(F)cc4c3C)cc2)n1 | 9.74% |
| COc1ccc(-n2c(SCC(=O)Nc3ncc(Cl)cc3Cl)nc3ccccc32)cc1 | -1.67% |
| N#Cc1ccc(C(=O)OCCCc2cc3ccccc3c(=O)o2)cc1 | -37.9% |
| COc1ccc(C(=O)C(C)OC(=O)c2nc3nccc(C)n3n2)cc1 (stereo not drawn) | 9.8% |
| Cn1c(O)c(C(C#N)=C2N=c3ccccc3=N2)c2ccccc21 | 4.36% |
| CC(C)c1ccccc1NC(=O)CCCC(=O)O | 2.58% |
